According to publication PMC7819943, “Rice protein-binding microarrays: a tool to detect cis-acting elements near promoter regions in rice”:
The list shows a part of the results.

Biological target: T1, OsWOX13 (Oryza sativa, UniProt Q5QMM3 1-267)
T1 sequence: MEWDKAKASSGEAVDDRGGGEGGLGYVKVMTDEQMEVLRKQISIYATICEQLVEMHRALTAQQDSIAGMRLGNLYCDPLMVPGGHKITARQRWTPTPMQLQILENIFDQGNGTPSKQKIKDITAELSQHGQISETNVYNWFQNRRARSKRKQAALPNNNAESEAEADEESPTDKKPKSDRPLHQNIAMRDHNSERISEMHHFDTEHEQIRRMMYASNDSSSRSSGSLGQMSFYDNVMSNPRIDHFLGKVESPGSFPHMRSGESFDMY
Assay: protein-binding microarray (RPBM); PBS, 2% BSA, 51.3 ng/ul salmon testes DNA, 50 uM zinc acetate, 200 nM TF, 25 C, 1 h; high values mean tight binding
Conditions: protein: recombinant; tags: N-terminal polyhistidine and DsRed monomer fusion (pET32a); label: CyDye5-dUTP incorporated in the synthesized complementary strand; 3' TTTTT single-stranded linker to array surface; dsDNA, one strand shown
Summary of the method: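 In PBS with 2% BSA, salmon testes DNA and 50 µM zinc acetate, 200 nM protein was incubated on a custom Agilent array at 25 °C for 1 h and then washed off. The array had been made double-stranded by primer extension with Cy5-dUTP and blocked with 2% BSA. The proteins were transcription factors fused N-terminally to polyhistidine and DsRed, expressed in E. coli BL21-CodonPlus and purified on Ni–NTA. The binding signal is per-feature fluorescence intensity (arbitrary units) from an Axon 4000B scanner.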

Sequence	binding signal
TGTAGATGATTTTGATCTTGATTTTGCACGTATGCATAACCGGAGTCACCTAGTGCAG	19200 fluorescence intensity (a.u.)
AAATTGGATGGAAATTGACAGATAGACCAGCCAAACGATCCGGAGTCACCTAGTGCAG	26400 fluorescence intensity (a.u.)
GCTAATTTAGATTGCTGTCAAAATAAACCTTTCTAAAATTCGGAGTCACCTAGTGCAG	24000 fluorescence intensity (a.u.)
ATCCATCATGTAAAATTGATGTTACTAGATTTATCATTAACGGAGTCACCTAGTGCAG	5970 fluorescence intensity (a.u.)
GTGCATTTAAATCTCAATCATCTGCGTGATTTGATTGAGCCGGAGTCACCTAGTGCAG	45400 fluorescence intensity (a.u.)
GATGTAATTTGATTATCAAAACTAAAACAATTGGATACAACGGAGTCACCTAGTGCAG	26300 fluorescence intensity (a.u.)
TTCCTCCCTGTCATTATCCGCCCTACTTCCCATCAAAGATCGGAGTCACCTAGTGCAG	3750 fluorescence intensity (a.u.)
AACCTTTCATTATTTATGTCCATGTACTCCCTGTTGAATTCGGAGTCACCTAGTGCAG	3370 fluorescence intensity (a.u.)
CTCATCATCAATCATCATCTCTGCAGCGTGACAGTAACATCGGAGTCACCTAGTGCAG	20100 fluorescence intensity (a.u.)
GTATAATTAAATGGGGAAGTGTTGTGATTGGAGTAGAAGTCGGAGTCACCTAGTGCAG	27200 fluorescence intensity (a.u.)
AGTCATTGACCACCCAATTGAATCAAATTGTATGGTTGGTCGGAGTCACCTAGTGCAG	3230 fluorescence intensity (a.u.)
GTTAATACTCAATTAATCATACGCTAATGGTTCACCTCATCGGAGTCACCTAGTGCAG	15900 fluorescence intensity (a.u.)
CCAACTAATCATGCTTAGTTAGCAATTAAGCCATAAACAACGGAGTCACCTAGTGCAG	9180 fluorescence intensity (a.u.)
AGTGTAATTAACTTTCTTCTTCTCTCCAACTGCTTCAGCTCGGAGTCACCTAGTGCAG	11200 fluorescence intensity (a.u.)
TTAACAAAGTTAGTGATTAATGTTTCATCGACCGGTCTGGCGGAGTCACCTAGTGCAG	5290 fluorescence intensity (a.u.)
GCCATTGATTGCGCCGGCGATGAATGCGGGCACGATTCGACGGAGTCACCTAGTGCAG	30900 fluorescence intensity (a.u.)
TTCTAATTTTAAAATCAGTAACACCAAACAAAATGCGCCTCGGAGTCACCTAGTGCAG	21000 fluorescence intensity (a.u.)
CTAACTAGCAAATTATGAGAATCTTAAGCTCCTCATTTCACGGAGTCACCTAGTGCAG	5910 fluorescence intensity (a.u.)
GTAGATTCAACGAAACTAAATTGGCGTTGTATATGTTACTCGGAGTCACCTAGTGCAG	3710 fluorescence intensity (a.u.)
AAATTAATTGTTATGATAAATATTATTATATTTATCTACCCGGAGTCACCTAGTGCAG	46000 fluorescence intensity (a.u.)
TACACCCCACTTACATATGTAATTAGTATATGTAATTTTCCGGAGTCACCTAGTGCAG	4610 fluorescence intensity (a.u.)

Sequence	binding signal
ATTAATTTATTACGCCGTCTACTTCTATTTTCGTCTACACCGGAGTCACCTAGTGCAG	35300 fluorescence intensity (a.u.)
GATCAAATAGAATAAACAAAATGTCAAAATTCATGAGGACCGGAGTCACCTAGTGCAG	3340 fluorescence intensity (a.u.)
CACAGTTGATGAGCAAATAGAAAGAACAGGGGAGAATGGTCGGAGTCACCTAGTGCAG	11200 fluorescence intensity (a.u.)
ATACAAATCAATATTTCTTCGTCGAGCGTGTCAGGAAGGACGGAGTCACCTAGTGCAG	3210 fluorescence intensity (a.u.)
TAAATTATCTTCTTTTAATCTTGTACTCGAGTTAAGGATTCGGAGTCACCTAGTGCAG	4080 fluorescence intensity (a.u.)
TCGCCTAATTGCGCCTGATTGGGCCACTAACGGGCCCACACGGAGTCACCTAGTGCAG	24700 fluorescence intensity (a.u.)
TCTTGCCAACTGATTGATCGATCCTGGAAGCTTGCTGCTGCGGAGTCACCTAGTGCAG	37900 fluorescence intensity (a.u.)
GTTATATAACCAATTTTACCAATTAGTTACTCCTAGTACGCGGAGTCACCTAGTGCAG	7810 fluorescence intensity (a.u.)
AATTGAAATAATTGGAAATTTTCATATTTATATATTAAACCGGAGTCACCTAGTGCAG	5800 fluorescence intensity (a.u.)
GCATAAACTTTCAATTTTCCCGTCACATCGTTCCAATTTCCGGAGTCACCTAGTGCAG	4970 fluorescence intensity (a.u.)
ACTGAAATCAATTAGCCTCTGCGAGTGAACTAAATCATGCCGGAGTCACCTAGTGCAG	12600 fluorescence intensity (a.u.)
TCCGATTAATGTGGAAATTTCTAGCCTCCACAGCGAACGTCGGAGTCACCTAGTGCAG	8650 fluorescence intensity (a.u.)
CAGTGTGATTGACTGTTGAGGCGGAGTCGGAGCTGCTTGTCGGAGTCACCTAGTGCAG	50900 fluorescence intensity (a.u.)
TGTTAATCTGCTGTGATGACTTGTCATCTTCCACTCTGTCCGGAGTCACCTAGTGCAG	4940 fluorescence intensity (a.u.)
TTGGCTTGATTGTCACATCGGATATACAGACACACATTTACGGAGTCACCTAGTGCAG	12400 fluorescence intensity (a.u.)
TGTTGAAATTGGCACGCTTAGACATAATGGTTGCTTGCTTCGGAGTCACCTAGTGCAG	8710 fluorescence intensity (a.u.)
ATTTGATAATTTGGTTTAGGATTTTGCATGGGGCATGTGTCGGAGTCACCTAGTGCAG	17800 fluorescence intensity (a.u.)
ACATTAATGATTAGAGACTATATTGTCTCTAACTGTTGTACGGAGTCACCTAGTGCAG	39900 fluorescence intensity (a.u.)
TTGATTTCTGTTATGTATGACGTGGCAGATGACTTAGTGTCGGAGTCACCTAGTGCAG	5730 fluorescence intensity (a.u.)
TCTAATTTCTCCTAGTCAGAACCAAATTTTCTCCTCAGAACGGAGTCACCTAGTGCAG	3270 fluorescence intensity (a.u.)
TTGAGGTGTTTATGTAATCAATTATGGACGTTGAGAAGCACGGAGTCACCTAGTGCAG	4350 fluorescence intensity (a.u.)
